Experimental data: publication PMC6423038, “Deferiprone: Pan-selective Histone Lysine Demethylase Inhibition Activity and Structure Activity Relationship Study” (Scientific Reports, 2019)

Test system: H3K4me3 and H3K27me3 levels in MDA-MB-231 cells
Format: cell-based, human
Settings: Western blot

Compound	H3K4me3 and H3K27me3 levels
Cc1c(O)c(=O)ccn1C [DFP, Deferiprone]	dose-dependent upregulation
Cc1c(O)c(=O)ccn1CCCCCCn1cc(-c2ccc(-c3ccncc3)cc2)nn1 [2u]	dose-dependent increase
Cc1c(O)c(=O)ccn1CCCCCn1cc(-c2ccccc2)nn1 [1d]	dose-dependent increase
